# Measurements: the supplement of paper PMC3334620
# In all, about 33,000 sequences were measured (“E-score (-0.5 to 0.5)”: median about -0.012, highest 2% from about 0.29 on). The list shows a part of the results.
# Molecular target: T1, Ybr033w (UniProt P38073)
# T1 sequence: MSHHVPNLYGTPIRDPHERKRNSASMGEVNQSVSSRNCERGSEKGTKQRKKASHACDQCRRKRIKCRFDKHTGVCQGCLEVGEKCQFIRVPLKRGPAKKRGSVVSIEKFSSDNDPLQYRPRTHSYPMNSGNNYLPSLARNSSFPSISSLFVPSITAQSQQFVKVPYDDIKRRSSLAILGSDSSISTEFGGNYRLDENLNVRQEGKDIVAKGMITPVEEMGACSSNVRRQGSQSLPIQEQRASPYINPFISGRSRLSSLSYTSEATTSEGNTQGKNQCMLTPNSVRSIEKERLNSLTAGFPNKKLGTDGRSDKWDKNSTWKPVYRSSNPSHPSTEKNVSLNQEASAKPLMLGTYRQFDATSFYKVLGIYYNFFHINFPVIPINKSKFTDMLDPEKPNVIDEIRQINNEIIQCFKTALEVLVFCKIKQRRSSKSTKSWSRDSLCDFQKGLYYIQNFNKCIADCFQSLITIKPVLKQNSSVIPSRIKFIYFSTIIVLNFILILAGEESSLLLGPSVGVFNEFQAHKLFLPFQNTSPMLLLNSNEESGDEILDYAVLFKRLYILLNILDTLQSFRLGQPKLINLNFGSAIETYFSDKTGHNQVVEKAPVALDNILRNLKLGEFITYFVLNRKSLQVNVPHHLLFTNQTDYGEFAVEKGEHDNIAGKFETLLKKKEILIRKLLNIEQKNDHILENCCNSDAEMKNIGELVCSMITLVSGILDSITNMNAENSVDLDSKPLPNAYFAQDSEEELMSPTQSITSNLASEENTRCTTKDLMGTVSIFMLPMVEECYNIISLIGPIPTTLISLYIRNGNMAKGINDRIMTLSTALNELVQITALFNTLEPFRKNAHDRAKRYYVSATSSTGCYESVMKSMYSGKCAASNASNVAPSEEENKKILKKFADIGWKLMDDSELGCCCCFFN
# Assay: PBM E-score (8-mer binding enrichment) (E-score (-0.5 to 0.5)); higher = stronger / more preferred TF binding; most listed sequences are background and not binding sites
# Settings: protein concentration: 200 nM; construct: GST-full length
# How it was run: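 PURExpress in vitro transcription/translation supplied GST-tagged yeast transcription factors, either full-length or DNA-binding domain. Applied at about 100-200 nM to universal all-10-mer Agilent arrays double-stranded by primer extension, the bound protein was detected with fluorescent anti-GST. E-scores, modified Wilcoxon-Mann-Whitney statistics, were given by the Universal PBM Analysis Suite to ungapped eight-base words pooled with their reverse complements after masliner normalisation.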
row,Sequence,PBM E-score
1,GACAGAGA,-0.066
2,CGACGTCG,-0.00674
3,CCGATGCG,-0.209
4,GGCTTGGA,-0.168
5,CGGTACGA,-0.239
6,ACCCATTA,0.0435
7,GTGCTTGA,0.0747
8,CGAACACG,-0.144
9,CCCACGCG,-0.284
10,AAGGGGCT,-0.163
11,CAAGTGTG,0.0102
12,GCGTATCC,-0.146
13,AATTGCCG,0.0142
14,ACTCCCCG,0.0663
15,GGCGGACA,-0.0294
16,GCCAGTTA,-0.00597
17,CTTAAATA,0.114
18,CGACCCTA,-0.196
19,AGTCGTAT,0.0278
20,GGTGACCA,-0.121
21,CCCTGCTC,-0.242
22,CTGCGTGC,-0.0264
23,GGAGACCA,-0.208
24,CTCTAGGC,-0.153
25,CCGGACGG,-0.247

row,Sequence,PBM E-score
1,CGCCCTTA,-0.128
2,CACTGATC,0.0744
3,CCTGAAAC,0.125
4,CATATTCA,0.0595
5,AGGGTGAA,-0.00596
6,CGGCATGA,-0.0494
7,CTTTACCC,-0.0404
8,TTCTGAAA,0.0473
9,ACAACCGG,-0.0135
10,GACGTCTA,-0.16
11,CATTTGCC,-0.253
12,ATACTGTA,0.0984
13,AGGCGCAC,-0.0157
14,CGAGTACC,-0.0949
15,AATGATAC,0.22
16,CACTTCAA,0.128
17,GGAAGGGA,-0.15
18,ACGGCCGC,-0.173
19,GGAGGTTA,-0.123
20,AGAAGGGA,-0.344
21,AAACAACT,0.188
22,AAAGAGGA,-0.0608
23,GTATATCA,0.153
24,GCCGAGCA,-0.337
25,CACCTCCC,-0.246

row,Sequence,PBM E-score
1,AAATTAGC,0.154
2,CGGTCAGC,-0.0465
3,GATAAGGA,0.0444
4,GGAAATGA,0.133
5,AACAACTG,0.271
6,AACACTAA,0.0799
7,CGCTAGCA,-0.0834
8,AATCACGT,0.153
9,GCACGAAC,0.00932
10,AGAGCACG,-0.199
11,GGAATCAC,0.0639
12,CCATCTAA,0.172
13,AGGCCGAG,0.149
14,TGGCTGAA,-0.00769
15,ATGTCGGG,-0.0221
16,CAGATCGA,0.0372
17,ATGTTGGA,0.175
18,GATACATC,-0.0274
19,AAAAAACT,0.183
20,ATGTCTAC,-0.092
21,GGTTTTCA,0.105
22,GCTTTCCA,0.0541
23,ACTTTAGC,-0.0319
24,AGGGGAAC,-0.278
25,CTCCAAAG,-0.087

row,Sequence,PBM E-score
1,AAGATGCC,-0.0419
2,AGGTATGG,-0.217
3,CATAAACC,0.11
4,CCTACTCG,-0.109
5,TTCTAAAA,0.221
6,GTTAAAAC,0.0881
7,CATAACGG,0.0155
8,GACCTAGA,-0.172
9,CGCGTTAC,0.00271
10,CGTCCTAA,-0.138
11,CATTTCCC,0.0841
12,ATAATGCC,0.0843
13,TACTCTGA,-0.0623
14,GCGTGCAC,-0.162
15,AGGATTTC,0.119
16,ACGGGTCT,-0.327
17,CCTGTCAG,0.0774
18,AAGTAGCA,0.162
19,ATGGAACC,-0.094
20,ACTGCGCC,-0.278
21,AGACAGGG,-0.164
22,ACAACTTA,0.142
23,ATAACAAA,0.29
24,ACCTTGTG,-0.0938
25,GTCCGTTA,0.112

row,Sequence,PBM E-score
1,CGAATAGC,-0.0575
2,AAAATACA,0.254
3,CAGTCACC,-0.164
4,GAAGGGCA,-0.156
5,CCCCCACG,-0.283
6,GTCATGCA,-0.0282
7,ACATCGGA,0.13
8,AGCCTGTG,-0.18
9,GACTTTAA,0.0963
10,CACTGCCG,0.00024
11,ATCTCTAC,0.226
12,AAATTAAG,0.144
13,AGTTATTA,0.173
14,CCATGCGG,-0.0979
15,CTATAACC,-0.0852
16,CTTCCTGC,-0.301
17,CAGTGCTA,-0.104
18,GTATAGGA,0.0159
19,AAGTTCCC,-0.0322
20,GCCCCAGC,-0.2
21,AGGACTTG,-0.13
22,GCGAAGGA,-0.0837
23,AAAGTCTA,-0.00319
24,ATTCCACA,0.335
25,ACTGACGC,-0.213

row,Sequence,PBM E-score
1,GAGAACAA,0.214
2,CACCTTCC,-0.0633
3,TGCTGCCA,-0.135
4,CCCATCAA,0.101
5,ATTGGGCA,-0.0994
6,AGTTTCCG,0.199
7,CAGTCTAG,-0.137
8,ACGGCCCA,-0.272
9,ATCGCTGG,-0.191
10,CTAGGTCA,-0.147
11,TGAATCAA,0.242
12,ATCATCTC,0.163
13,ACGTAGAA,0.0511
14,AAACACCA,-0.00105
15,GTTCAACA,0.113
16,ACGTCGCT,-0.158
17,AATCGGCG,-0.1
18,TAAGGTCA,0.028
19,CCATAAGG,-0.18
20,CACTGCAA,0.125
21,CGCCCGGA,-0.0607
22,GGTTCCAC,0.0211
23,ACACACAA,0.228
24,AGCTGAGG,-0.117
25,CGAGGACC,0.00778

row,Sequence,PBM E-score
1,CCGGTTCG,-0.102
2,CGAGCGCC,-0.195
3,ACCCCTAA,-0.153
4,ACAAACGT,0.106
5,ACAAAGGT,0.139
6,CCAACCGA,0.0191
7,AGGCCCCA,-0.233
8,GATGCAGA,-0.00396
9,CCTGAACG,-0.172
10,CTAACGAG,-0.0146
11,GGATCCTA,-0.162
12,ATTTCCAA,0.104
13,CCATCCAG,-0.135
14,CTCGCGGA,-0.166
15,AAATAGCA,0.106
16,GACATTGA,0.0812
17,AGCTTTAT,-0.065
18,CACTAGAC,-0.105
19,AGCTCACA,-0.0973
20,ACTGCTAA,-0.124
21,ATAGTGCA,0.0588
22,ACGAGCGT,-0.148
